Changes are numbered by the printed parent chain. These are yes or no findings as the source states them, for the method shown. For some of these results: In cells and extracts the contact can be indirect. Some binding calls cover weakened binding; strength is not graded here. For some of these results: Tags and fused reporters may be left off the sequences shown.

By UniProt entry, the sequences of proteins in these tests, tags left out. Where a name states a change or a piece, a line headed by the entry shows the natural chain unless it says otherwise.
UniProt Q16659: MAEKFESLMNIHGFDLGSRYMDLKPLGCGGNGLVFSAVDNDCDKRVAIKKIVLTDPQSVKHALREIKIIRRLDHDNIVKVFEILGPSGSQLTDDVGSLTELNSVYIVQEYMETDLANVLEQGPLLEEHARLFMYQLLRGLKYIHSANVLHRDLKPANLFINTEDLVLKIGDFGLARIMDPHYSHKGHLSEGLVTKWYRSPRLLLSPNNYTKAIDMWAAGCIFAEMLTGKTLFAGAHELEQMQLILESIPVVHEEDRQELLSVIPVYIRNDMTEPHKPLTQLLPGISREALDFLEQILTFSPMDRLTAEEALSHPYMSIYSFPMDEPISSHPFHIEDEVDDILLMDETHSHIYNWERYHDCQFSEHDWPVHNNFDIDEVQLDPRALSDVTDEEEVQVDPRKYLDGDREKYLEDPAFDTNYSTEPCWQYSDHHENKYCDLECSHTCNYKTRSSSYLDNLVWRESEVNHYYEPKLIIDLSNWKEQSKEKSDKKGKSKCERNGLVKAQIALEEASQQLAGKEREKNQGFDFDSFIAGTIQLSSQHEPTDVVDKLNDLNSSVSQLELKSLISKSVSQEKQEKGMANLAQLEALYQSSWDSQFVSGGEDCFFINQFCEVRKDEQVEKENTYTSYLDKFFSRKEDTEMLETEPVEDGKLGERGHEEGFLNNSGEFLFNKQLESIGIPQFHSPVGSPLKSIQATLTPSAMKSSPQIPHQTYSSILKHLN
UniProt P31152: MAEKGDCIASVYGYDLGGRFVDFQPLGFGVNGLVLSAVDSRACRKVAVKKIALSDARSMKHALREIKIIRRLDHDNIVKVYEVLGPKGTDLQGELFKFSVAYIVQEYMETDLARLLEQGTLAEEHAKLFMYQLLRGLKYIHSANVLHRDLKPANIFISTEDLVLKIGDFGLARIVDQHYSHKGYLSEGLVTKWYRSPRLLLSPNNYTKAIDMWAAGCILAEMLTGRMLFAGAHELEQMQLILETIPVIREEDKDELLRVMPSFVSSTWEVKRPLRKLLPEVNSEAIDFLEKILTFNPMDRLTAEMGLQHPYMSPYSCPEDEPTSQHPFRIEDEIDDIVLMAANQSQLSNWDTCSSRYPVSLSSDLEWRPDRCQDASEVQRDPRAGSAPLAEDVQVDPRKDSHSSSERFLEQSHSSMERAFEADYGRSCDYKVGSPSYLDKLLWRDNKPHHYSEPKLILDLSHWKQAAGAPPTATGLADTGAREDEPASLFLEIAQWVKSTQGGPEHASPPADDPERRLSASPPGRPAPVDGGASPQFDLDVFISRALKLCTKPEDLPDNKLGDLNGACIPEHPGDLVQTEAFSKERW

Test [1] concerns the target T1, DUSP2 (wild-type), GAL4 DNA-binding domain fusion (human) (UniProt Q05923).
T1 sequence: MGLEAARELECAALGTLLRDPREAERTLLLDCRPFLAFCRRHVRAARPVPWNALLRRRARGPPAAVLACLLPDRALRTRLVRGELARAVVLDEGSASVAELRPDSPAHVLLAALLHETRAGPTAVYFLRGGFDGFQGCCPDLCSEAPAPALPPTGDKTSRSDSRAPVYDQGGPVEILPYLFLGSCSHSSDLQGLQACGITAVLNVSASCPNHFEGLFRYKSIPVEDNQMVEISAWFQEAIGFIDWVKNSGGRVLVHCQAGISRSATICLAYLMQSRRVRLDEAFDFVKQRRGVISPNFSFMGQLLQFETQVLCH
As to the kind of experiment: two-hybrid; semi-quantitative analysis by induction of the beta-galactosidase reporter gene; triplicate.

The target of test [2] is T2, DUSP1/MKP-1, GAL4 DNA-binding domain fusion (human) (UniProt P28562).
T2 sequence: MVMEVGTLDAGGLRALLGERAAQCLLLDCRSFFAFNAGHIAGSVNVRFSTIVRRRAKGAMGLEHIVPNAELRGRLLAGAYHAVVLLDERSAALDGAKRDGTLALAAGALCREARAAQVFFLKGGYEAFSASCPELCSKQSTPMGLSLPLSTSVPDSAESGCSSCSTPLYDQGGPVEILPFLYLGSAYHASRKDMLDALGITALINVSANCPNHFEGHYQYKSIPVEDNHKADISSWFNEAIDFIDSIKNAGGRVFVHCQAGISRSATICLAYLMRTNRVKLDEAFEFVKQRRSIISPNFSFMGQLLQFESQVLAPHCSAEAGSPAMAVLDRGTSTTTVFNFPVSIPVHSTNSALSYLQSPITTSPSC
As to the kind of experiment: two-hybrid; GAL4 activation domain fusions of ERK3, ERK4 or ERK2 (pGADT7, Y187) mated with GAL4 DNA-binding domain fusions of MKPs (pGBKT7, PJ69-2A); growth on SD medium lacking leucine, tryptophan, alanine and histidine.

Test [3] has as its target T3, DUSP10/MKP-5, GAL4 DNA-binding domain fusion (human) (UniProt Q9Y6W6).
T3 sequence: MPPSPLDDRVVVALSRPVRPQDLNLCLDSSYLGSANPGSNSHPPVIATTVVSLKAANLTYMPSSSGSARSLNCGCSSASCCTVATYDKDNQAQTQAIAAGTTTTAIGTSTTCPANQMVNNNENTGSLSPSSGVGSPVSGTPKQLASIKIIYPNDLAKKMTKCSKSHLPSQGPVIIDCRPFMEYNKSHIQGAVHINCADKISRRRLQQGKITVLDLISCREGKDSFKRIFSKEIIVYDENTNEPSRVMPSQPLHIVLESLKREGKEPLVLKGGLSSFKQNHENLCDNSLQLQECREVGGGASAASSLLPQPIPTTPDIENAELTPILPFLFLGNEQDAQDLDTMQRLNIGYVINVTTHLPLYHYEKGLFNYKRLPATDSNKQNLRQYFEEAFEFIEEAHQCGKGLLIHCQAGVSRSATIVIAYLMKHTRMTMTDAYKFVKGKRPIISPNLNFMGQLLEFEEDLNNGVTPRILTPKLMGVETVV
Described as above.

Test [4] addresses T4, DUSP16/MKP-7, GAL4 DNA-binding domain fusion (human) (UniProt Q9BY84).
T4 sequence: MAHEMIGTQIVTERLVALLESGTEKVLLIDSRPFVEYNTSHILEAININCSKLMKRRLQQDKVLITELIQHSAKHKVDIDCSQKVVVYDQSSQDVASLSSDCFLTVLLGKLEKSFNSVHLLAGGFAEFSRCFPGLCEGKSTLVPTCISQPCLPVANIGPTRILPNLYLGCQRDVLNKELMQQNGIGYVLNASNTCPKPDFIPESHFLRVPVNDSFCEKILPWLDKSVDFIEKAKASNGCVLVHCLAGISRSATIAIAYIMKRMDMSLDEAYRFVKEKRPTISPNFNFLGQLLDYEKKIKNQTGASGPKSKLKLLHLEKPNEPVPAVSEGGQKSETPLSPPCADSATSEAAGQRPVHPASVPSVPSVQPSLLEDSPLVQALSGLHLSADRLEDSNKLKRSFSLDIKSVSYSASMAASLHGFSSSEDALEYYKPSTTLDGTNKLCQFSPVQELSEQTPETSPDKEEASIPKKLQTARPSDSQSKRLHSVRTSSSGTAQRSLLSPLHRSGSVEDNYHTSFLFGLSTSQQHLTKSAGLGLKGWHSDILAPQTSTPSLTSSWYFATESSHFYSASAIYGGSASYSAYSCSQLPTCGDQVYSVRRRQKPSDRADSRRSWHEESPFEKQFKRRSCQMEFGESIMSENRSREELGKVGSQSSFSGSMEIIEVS
The description is as above.

Test [5] deals with T1, DUSP2 (wild-type), GAL4 DNA-binding domain fusion (human). The description is as above.
In test [6] the target is T5, DUSP6/MKP-3, GAL4 DNA-binding domain fusion (human) (UniProt Q16828).
T5 sequence: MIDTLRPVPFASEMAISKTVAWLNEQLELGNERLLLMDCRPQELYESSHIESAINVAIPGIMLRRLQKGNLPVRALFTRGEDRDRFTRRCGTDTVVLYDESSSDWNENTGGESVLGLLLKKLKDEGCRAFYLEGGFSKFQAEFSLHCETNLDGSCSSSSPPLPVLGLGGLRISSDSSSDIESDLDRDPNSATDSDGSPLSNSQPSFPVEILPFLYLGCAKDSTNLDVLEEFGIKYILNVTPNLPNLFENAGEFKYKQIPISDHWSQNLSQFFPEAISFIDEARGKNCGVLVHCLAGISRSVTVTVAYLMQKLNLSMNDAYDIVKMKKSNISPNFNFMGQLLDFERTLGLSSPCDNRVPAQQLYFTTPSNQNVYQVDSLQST
The test is described as above.

The target of test [7] is T6, catalytically inactive DUSP2 mutant (DUSP2CS, C257S), GAL4 DNA-binding domain fusion (human) (UniProt Q05923).
T6 sequence: T1 sequence with C257S
The test is described as above.

Test [8] deals with endogenous ERK3 (human (endogenous in NCI-H1299 and Jurkat)) (UniProt Q16659). As to the kind of experiment: co-IP; Jurkat T-cells stimulated with PMA and anti-CD3 antibody for 3 hours in presence of MG132; endogenous ERK3 immunoprecipitated with goat polyclonal anti-ERK3; DUSP2 detected by Western blot; preimmune sheep IgG as control. Background: Immunoblotting shows a protein as a band on a membrane.

Test [9] addresses T7, GST-mDUSP2 (fusion between GST and the murine homologue of DUSP2, wild-type) (mouse) (UniProt Q05922).
T7 sequence: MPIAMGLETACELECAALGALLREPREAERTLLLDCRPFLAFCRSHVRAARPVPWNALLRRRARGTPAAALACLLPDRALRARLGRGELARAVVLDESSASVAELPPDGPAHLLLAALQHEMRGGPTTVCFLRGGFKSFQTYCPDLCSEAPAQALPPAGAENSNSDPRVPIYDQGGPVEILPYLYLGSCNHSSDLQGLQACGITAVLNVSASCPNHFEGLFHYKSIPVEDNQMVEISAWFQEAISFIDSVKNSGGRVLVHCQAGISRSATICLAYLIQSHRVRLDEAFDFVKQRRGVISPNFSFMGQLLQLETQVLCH
The test can be described thus: pull-down; 2 ug recombinant ERK3 or ERK4 with 2 ug purified GST fusion in 200 ul 50 mM Tris/HCl pH 7.5, 1 mM EGTA, 1 mM EDTA, 1% Triton-X 100, 1 mM sodium orthovanadate, 50 mM sodium fluoride, 5 mM sodium pyrophosphate, 0.27 M sucrose, 2 h at 4 C; Glutathione-Sepharose; Western blot; both purified.

Test [10] addresses T8, GST-mDUSP2CS (catalytically inactive C261S mutant of murine DUSP2) (mouse) (UniProt Q05922).
T8 sequence: T7 sequence with C261S
The description is as above.

Test [11] has as its target T9, GST-mDUSP2KIM (kinase interaction motif-deficient murine DUSP2) (mouse) (UniProt Q05922).
T9 sequence: T7 sequence with R60A, R61S, R62A
The test is described as above.

Consider “ERK3 (wild-type), GAL4 activation domain fusion (from UniProt Q16659 1-721) (enzyme)”, for which the binding entry is recorded as “binds” in test [1]; “no binding” in [2]; “no binding” in test [3]; “no binding” in [4]; “binds” in test [5]; “no binding” in [6]. Besides, the binding result in test [7] is on record as “binds”.

Consider “ERK3 D324N (CD domain mutant), two-hybrid fusion (from UniProt Q16659 1-721) (enzyme)”, for which, in [1], the binding result is “no binding”.

In the case of “ERK4 (wild-type), GAL4 activation domain fusion (from UniProt P31152 1-587) (enzyme)”, the binding entry was “binds” in test [1]; “no binding” in test [2]; “no binding” in test [3]; “no binding” in test [4]; “binds” in [5]; “no binding” in [6]. The binding result in test [7] was “binds”.

On to “endogenous DUSP2 (from UniProt Q05923 1-314) (enzyme)”, for which the binding entry in [8] is given as “binds”.

For “purified recombinant ERK3 (from UniProt Q16659 1-721) (enzyme)”, the binding entry in [9] was “binds”; in [10], “binds”; in test [11] it was “no binding (tested: 2 ug of each protein in 200 ul)”.

In the case of “purified recombinant ERK4 (from UniProt P31152 1-587) (enzyme)”, the results for the binding entry in test [9], in test [10] and in test [11] were “binds”, “binds” and “no binding (tested: 2 ug of each protein in 200 ul)”, respectively.

Values taken from PMC5333157.
